Some of these densities may be calculated back from excess volumes.
Experiment: xn = mol fraction of the nth substance listed
Conditions: 101 kPa

`O` + CS(=O)(=O)[O-].C[N+](C)(CCO)CCO showed a mass density (313.15 K, x2 = 0) of 992.3 kg/m3.
Work on `CS(=O)(=O)[O-].C[N+](C)(CCO)CCO` + O yielded a mass density (298.15 K, x1 = 0.0989) of 1158.4 kg/m3, a mass density (298.15 K, x1 = 0.2989) of 1244.9 kg/m3 and a mass density (298.15 K, x1 = 0.3971) of 1261.6 kg/m3. It also gave a mass density (298.15 K, x1 = 0.4797) of 1271.1 kg/m3, a mass density (298.15 K, x1 = 0.5983) of 1280.7 kg/m3 and a mass density (298.15 K, x1 = 0.6984) of 1286.5 kg/m3. For the same compound, the mass density (298.15 K, x1 = 0.7942) was 1291 kg/m3, the mass density (298.15 K, x1 = 0.8928) was 1294.6 kg/m3 and the mass density (298.15 K, x1 = 1) was 1298.2 kg/m3. The mass density (303.15 K, x1 = 0.0989) was 1155.8 kg/m3, the mass density (303.15 K, x1 = 0.1991) was 1213.4 kg/m3 and the mass density (303.15 K, x1 = 0.3971) was 1258.5 kg/m3. For the same compound, the mass density (303.15 K, x1 = 0.4797) was 1268 kg/m3, the mass density (303.15 K, x1 = 0.5983) was 1277.6 kg/m3 and the mass density (303.15 K, x1 = 0.7942) was 1287.9 kg/m3. For the same compound, the mass density (303.15 K, x1 = 0.8928) was 1291.4 kg/m3, the mass density (303.15 K, x1 = 1) was 1295 kg/m3 and the mass density (308.15 K, x1 = 0.0989) was 1153.2 kg/m3. The mass density (308.15 K, x1 = 0.1991) was 1210.6 kg/m3, the mass density (308.15 K, x1 = 0.2989) was 1238.9 kg/m3 and the mass density (308.15 K, x1 = 0.3971) was 1255.5 kg/m3. The mass density (308.15 K, x1 = 0.4797) was 1264.9 kg/m3, the mass density (308.15 K, x1 = 0.5983) was 1274.5 kg/m3 and the mass density (308.15 K, x1 = 0.6984) was 1280.2 kg/m3. The mass density (308.15 K, x1 = 0.7942) was 1284.7 kg/m3, the mass density (308.15 K, x1 = 0.8928) was 1288.2 kg/m3 and the mass density (308.15 K, x1 = 1) was 1291.7 kg/m3. The mass density (313.15 K, x1 = 0.0989) was 1150.6 kg/m3, the mass density (313.15 K, x1 = 0.1991) was 1207.8 kg/m3 and the mass density (313.15 K, x1 = 0.2989) was 1236 kg/m3. The mass density (313.15 K, x1 = 0.3971) was 1252.5 kg/m3, the mass density (313.15 K, x1 = 0.5983) was 1271.4 kg/m3 and the mass density (313.15 K, x1 = 0.7942) was 1281.6 kg/m3. It also gave a mass density (313.15 K, x1 = 0.8928) of 1285.1 kg/m3, a mass density (313.15 K, x1 = 1) of 1288.6 kg/m3 and a mass density (318.15 K, x1 = 0.0989) of 1147.9 kg/m3. The mass density (318.15 K, x1 = 0.1991) was 1204.9 kg/m3, the mass density (318.15 K, x1 = 0.3971) was 1249.5 kg/m3 and the mass density (318.15 K, x1 = 0.5983) was 1268.1 kg/m3. It also gave a mass density (318.15 K, x1 = 0.6984) of 1274 kg/m3, a mass density (318.15 K, x1 = 0.7942) of 1278.5 kg/m3 and a mass density (318.15 K, x1 = 0.8928) of 1282 kg/m3. For the same compound, the mass density (323.15 K, x1 = 0.0989) was 1145.1 kg/m3, the mass density (323.15 K, x1 = 0.2989) was 1230.1 kg/m3 and the mass density (323.15 K, x1 = 0.3971) was 1246.4 kg/m3. For the same compound, the mass density (323.15 K, x1 = 0.5983) was 1265 kg/m3, the mass density (323.15 K, x1 = 0.7942) was 1275.4 kg/m3 and the mass density (323.15 K, x1 = 0.8928) was 1278.8 kg/m3.

Source: a compilation of properties of binary mixtures (doi:10.1007/s10953-020-00968-2)
